From PubChem BioAssay AID504832 (National Center for Advancing Translational Sciences (NCATS), 2011)
Among all 310,000 compounds or so, about 18,000 (5.8%) were called active. Inconclusive means that the source gave no clear call. Such entries were picked first, then a sample of the others. The call rests on the fitted dose curve; in most records, active means well fitted inhibition curve with a large enough effect; inconclusive means small, poorly fitted or top-dose-only effect, or another doubt; inactive means no such curve, though single readings can be large or run the other way. Potencies of inconclusive entries are left out as doubtful fits.

Experiment: Primary qHTS for delayed death inhibitors of the malarial parasite plastid, 48 hour incubation
Conditions: P. falciparum luciferase growth in erythrocytes; series mostly up to 28.7 µM; activity change, negative = inhibition: at the top concentration
Procedure, shortened: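 Erythrocytes infected with P. falciparum carrying an integrated firefly luciferase reporter (2% hematocrit, 0.1% parasitemia final) were exposed to compounds in RPMI 1640 with 0.5% Albumax at 37 C, 5% CO2. Growth inhibition was scored as reduced luminescence.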
On the % scale 0 is the no-effect control and ±100 the full control effect; potency means the concentration at half of the fitted maximal effect; tags describe the fitted curve by direction and shape.

Structure (SMILES)	Potency	activity change, negative = inhibition
CC1CCCCC1NC(=O)c1ccc(S(=O)(=O)NNC(=O)c2ccncc2)cc1 (stereo not given)	active: 2.08 µM	
N#Cc1cc(-c2ccccc2)nc(NN)n1	inconclusive [inhibitor, single point]	
COc1ccc(Cl)cc1NC(=O)CN(C)C(=O)c1cn(-c2ccccc2)nc1-c1cccnc1	inconclusive [inhibitor, single point]	
Cc1ccc(-c2nn(-c3ccccc3)cc2C(=O)Nc2cccc(S(=O)(=O)N3CCOCC3)c2)cc1	inconclusive [inhibitor, single point]	
COc1ccccc1CNC(=O)CSc1nc(C)cs1	inconclusive [inhibitor, full curve, poor fit]	
CCOC(=O)c1c(NC(=O)COC)sc(C)c1C		inactive: -11.5%
Cc1ccc(-c2nn(-c3ccccc3)cc2CSC(=N)N)cc1	inconclusive [inhibitor, partial curve, poor fit]	
Cc1oc(-c2ccccc2F)nc1CS(=O)(=O)CC(=O)NCCCN(C)C1CCCCC1	inconclusive [inhibitor, single point]	
Cc1sc2nc(C)n(/N=C/c3ccccc3)c(=O)c2c1C		inactive: 5.75%
Cn1ccnc1C(O)(c1nnc(-c2ccccc2)o1)C(F)(F)F (stereo not given)		inactive: 13.1%
COc1cccc(NC(=O)CN2C(=O)CSc3ccc(S(=O)(=O)N4CCOCC4)cc32)c1	inconclusive [inhibitor, partial curve, poor fit]	
Cc1cc(Nc2ccccc2)c2c([N+](=O)[O-])cc(C)c(C)c2n1	inconclusive [inhibitor, single point]	
Cc1c(NC(=O)COc2ccc(C(C)C)cc2)c(=O)n(-c2ccccc2)n1C		inactive: 12.8%
S=C(NCc1ccc(Cl)cc1)Nc1ccncc1	active: 13.1 µM	
COCCN(CC1CCCN(C2Cc3ccccc3C2)C1)C(=O)c1cccs1 (stereo not given)	inconclusive [inhibitor, single point]	
CCOc1ccccc1NC(=S)Nc1ccccc1F		inactive: 0.891%
COc1ccc(CN(C)C(=O)c2ccccc2OCc2c(C)noc2C)cc1OC	inconclusive [inhibitor, single point]	
Cc1ccc(Sc2ncccc2C(=O)NCC(c2ccc(F)cc2)N2CCOCC2)cc1C (stereo not given)	active: 11.7 µM	
COc1ccccc1/C=N/NC(=O)c1c(-c2ccccc2)noc1C		inactive: -14.8%
COc1ccc(Cl)cc1NC(=O)NC(C)C(C)(C)C (stereo not given)	inconclusive [inhibitor, partial curve, poor fit]	
